Among all 310,000 compounds or so, about 14,000 (4.5%) showed an effect of 50% or more. The effect is printed as a negative number. The list shows a part of the results.
What follows are molecules tested against human ether-à-go-go-related gene (hERG) potassium channel (human, UniProt Q12809) (assay: primary screen, population patch clamp on CHO cells stably expressing hERG).
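Further: peak tail current of the secondary pulse compared with the same well before compound.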

Chain of human ether-à-go-go-related gene (hERG) potassium channel (Q12809 whole entry, looked up): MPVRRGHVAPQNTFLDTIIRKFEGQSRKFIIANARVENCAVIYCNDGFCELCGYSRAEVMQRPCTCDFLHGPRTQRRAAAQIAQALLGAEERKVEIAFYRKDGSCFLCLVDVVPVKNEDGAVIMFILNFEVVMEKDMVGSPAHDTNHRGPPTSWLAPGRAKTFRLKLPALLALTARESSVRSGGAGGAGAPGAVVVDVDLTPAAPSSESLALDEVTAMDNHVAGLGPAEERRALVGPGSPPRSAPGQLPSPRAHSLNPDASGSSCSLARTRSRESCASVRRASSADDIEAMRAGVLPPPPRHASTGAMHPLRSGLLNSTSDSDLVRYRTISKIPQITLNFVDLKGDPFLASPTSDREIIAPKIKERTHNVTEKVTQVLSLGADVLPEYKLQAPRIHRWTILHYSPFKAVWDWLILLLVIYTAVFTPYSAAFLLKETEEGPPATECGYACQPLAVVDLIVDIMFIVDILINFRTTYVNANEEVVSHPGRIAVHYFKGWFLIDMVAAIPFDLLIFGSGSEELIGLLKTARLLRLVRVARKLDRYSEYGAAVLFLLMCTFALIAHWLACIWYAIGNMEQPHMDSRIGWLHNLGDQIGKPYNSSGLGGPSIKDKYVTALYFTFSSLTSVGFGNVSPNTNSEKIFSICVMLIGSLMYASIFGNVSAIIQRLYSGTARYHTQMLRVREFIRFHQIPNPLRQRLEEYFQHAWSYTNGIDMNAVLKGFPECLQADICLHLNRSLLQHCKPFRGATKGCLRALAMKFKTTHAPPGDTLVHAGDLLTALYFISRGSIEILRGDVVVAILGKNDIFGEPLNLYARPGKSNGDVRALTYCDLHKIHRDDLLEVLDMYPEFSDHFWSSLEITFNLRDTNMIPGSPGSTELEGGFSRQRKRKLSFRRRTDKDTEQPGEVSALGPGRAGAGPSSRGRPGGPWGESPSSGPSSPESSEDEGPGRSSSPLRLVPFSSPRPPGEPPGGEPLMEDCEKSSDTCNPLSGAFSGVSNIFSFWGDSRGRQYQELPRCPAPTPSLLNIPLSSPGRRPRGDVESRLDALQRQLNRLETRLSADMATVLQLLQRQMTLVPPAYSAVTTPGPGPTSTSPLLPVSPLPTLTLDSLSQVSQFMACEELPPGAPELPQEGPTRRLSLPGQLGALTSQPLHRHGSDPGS

Compound	hERG current change (%, negative = inhibition) at 10uM
CCCCN(C(=O)CCSc1ccc(F)cc1)c1c(N)n(Cc2ccccc2)c(=O)[nH]c1=O	5.9%
N#C/C(=C1/CCCN1)c1ccccn1	0.0836%
CCN(CC)C(=O)CSc1nc(-c2ccccc2)cc(=O)[nH]1	3.34%
Cn1c(CSc2ncccn2)nnc1SCC(=O)N1CCCc2ccccc21	2.95%
Cl.Fc1ccc(C(OCCN2CCN(CCCc3ccccc3)CC2)c2ccc(F)cc2)cc1	-77.4%
Cc1nnc(N/N=C/c2c(Cl)cccc2Cl)n1N.Cl	4.09%
CCc1cccc(CC)c1-n1c(SCc2cc(=O)n3ccsc3n2)nnc1-c1cccnc1	-27.2%
C=CCN1C(=O)/C(=C\C(C)=C\c2ccccc2)SC1=S	11.8%
Cc1ccc(/C=C2/Sc3ccc(C(=O)N4CCN(c5ccccn5)CC4)cc3NC2=O)cc1	2.67%
O=C(COC(=O)c1ccc(O)cc1)Nc1cc(C(F)(F)F)ccc1N1CCOCC1	-25%
Cc1cc(C(=O)NN=C2CCCCC2)c2ccccc2n1	-4.11%
COc1ccc(NC(=O)COc2ccccc2C(=O)NCC(c2ccccc2)N(C)C)cc1Cl (stereo not shown)	-31.2%
Cc1ccc(CN2CCCOCCS2(=O)=O)cc1	9.35%
O=C(NNS(=O)(=O)c1ccc(Cl)cc1)c1cc(-c2ccccc2)n[nH]1	3.29%
COc1cccc(C2N=C(c3ccccc3C)NO2)c1OC (stereo not shown)	5.27%
Cn1c(SCC(=O)N2c3ccccc3Sc3ccc(Cl)cc32)nnc1-c1ccco1	-48.9%
CCC(C)N=C1Sc2nc3ccc(C)cc3cc2CN1CCOC (stereo not shown)	-79%
O=c1oc2ccccc2c(NCc2ccccc2)c1[N+](=O)[O-]	-34%
CC(=O)Nc1ccc(N2C(=O)CCC2=O)cc1C	18%
O=C(Nc1nc2ccccc2n1Cc1ccccc1)c1ccc(COc2ccccc2[N+](=O)[O-])o1	-18.8%
Cc1cc(CNC(=O)Nc2ccc3c(c2)OCO3)nn1C	-0.683%
CCOC(=O)c1ccc(NC(=O)c2nc[nH]c2C(=O)NCCCNC(=O)c2[nH]cnc2C(=O)Nc2ccc(C(=O)OCC)cc2)cc1	14.1%

Compound	hERG current change (%, negative = inhibition) at 10uM
C/C(=N\NC(N)=O)c1c(O)n(C)c(=O)n(C)c1=O	15.8%
CCn1cnc2c1c(=O)[nH]c(=O)n2Cc1ccccc1	19%
COCC(=O)Nc1ccc(Br)cc1C	8.8%
Cc1ccc(NC(=O)CN2C(=O)C(C)Oc3ccccc32)nc1 (stereo not shown)	4.98%
O=C(CSc1nc2ccc([N+](=O)[O-])cc2[nH]1)NC1CCCCCC1	-16.6%
CCCCNC(=O)c1onc(CSc2ccccc2C)c1C(=O)O	13.8%
FC(F)(F)c1cc(-c2ccco2)nc(NCc2ccc(Cl)cc2)n1	6.88%
Cc1nc([N+](=O)[O-])cn1Cc1cccc([N+](=O)[O-])c1	-8.42%
CC(C)NC(=O)NC(=O)COC(=O)Cc1c(F)cccc1Cl	-10.8%
COCC(=O)NNC(=S)Nc1cccc(C)c1C	35.2%
CCCC(=O)Nc1ccc2c(c1)nc(CN1CCCC1)n2C	11.7%
Cc1nn(Cc2noc(C(=O)NCc3ccccn3)n2)c(C)c1Br	-14.5%
CCc1ccc2c(c1)c1nc(C)sc1n2CC(=O)OC	9.3%
Cc1ccc(CNC(=O)CSc2ccc(-c3cccs3)nn2)cc1	4.35%
CC(C)NS(=O)(=O)c1ccc(CCC(=O)N2CCCC2)cc1	11.1%
CN1/C(=C/C(=O)C2CC2)C(C)(C)c2ccccc21	15.7%
Cc1ccc(NC(=O)c2ccc(OCC3CCCO3)cc2)c(C)c1 (stereo not shown)	-9.65%
COc1ccc(CCN2C(=S)N(c3ccc(Cl)cc3)C(=O)C2CC(N)=O)cc1OC (stereo not shown)	16%
CCn1c(SCC(=O)O)nnc1-c1cc2c(C)nn(-c3ccccc3)c2s1	-0.708%
O=c1ccc(NS(=O)(=O)c2ccccc2)cn1Cc1ccc(Cl)c(Cl)c1	-11.8%
CCOC(=O)[C@H]1[C@H]2COc3ccc(Br)cc3[C@@H]2N2C(=O)CN(Cc3ccco3)C(=O)[C@@]12C	-38.7%
COc1ccc2c(c1)[C@H]1[C@H](CO2)[C@H](c2ccccc2)[C@]2(C)C(=O)N[C@@H](C)C(=O)N12	1.7%

Compound	hERG current change (%, negative = inhibition) at 10uM
COc1ccccc1NC(=O)COc1ccc(/C=N/NS(=O)(=O)c2ccc(C)cc2)cc1	20.1%
CCCn1c(=S)[nH]c2cc(C(=O)N3CCCC(C(=O)OCC)C3)ccc2c1=O (stereo not shown)	5.19%
Cc1ccccc1OCCCn1cc(C(=O)C(=O)N2CCOCC2)c2ccccc21	-10.6%
O=C(Nc1cccnc1)c1ccc(NC(=O)c2ccco2)cc1	4.84%
O=C1CSC(=S)N1/N=C/c1cc(Br)c(O)c(Br)c1	25.3%
O=C(c1ccc(Nc2cccc(C(F)(F)F)c2)nc1)N1CCCC1	-20.3%
Cc1ccc(NC(=O)CN2C(=O)C3C4C=CC(C4)C3C2=O)cc1 (stereo not shown)	10.7%
C#CCOc1ccc(/C=C2/C(=O)NN(c3ccc(F)cc3)C2=O)cc1OC	2.13%
Cc1ccc(S(=O)(=O)Nc2ccncc2)c(C)c1N(C)S(=O)(=O)c1ccc(Cl)cc1	-13.3%
O=C(c1noc2c1CCCC2)N1CCC(CO)(Cc2ccccc2Cl)CC1	-22.9%
Cc1cc(C(=O)CCl)c(C)n1CCc1ccccc1	-17.5%
O=C(Nc1ccc(N2CCOCC2)cc1)Nc1ccc(Cl)c(Cl)c1	15.4%
Cc1ccc(C(C)C)c(OCCN(C)C)c1.O=C(O)C(=O)O	-5.47%
O=c1cccc2n1Cc1cc3ccccc3nc1-2	11.1%
CC12CCC(=O)N1C(C(=O)Nc1cccc(S(=O)(=O)N3CCCCC3)c1)CS2 (stereo not shown)	-43.9%
CC(C)(C)c1ccc(C(=O)Nn2c(CCC(=O)O)ccc2-c2cccs2)cc1	-4.16%
CS(=O)(=O)N1CCCC(C(=O)Nc2ccc(F)cc2F)C1 (stereo not shown)	17.1%
O=C(CCc1nnc(COc2ccccc2)o1)NCc1ccc(Cl)s1	1.7%
Cc1ccccc1NC(=O)C(C)n1c2ccccc2c2nc(=O)cc(C)n21 (stereo not shown)	-15.4%
CCCCCC(C(=O)O)C(C)CC(=O)NC1CCCCC1 (stereo not shown)	4.26%
CC(=O)c1ccc(NS(=O)(=O)c2ccc(N)cc2)cc1	9.67%
Cc1cccc2c1N(C(=O)c1ccco1)C(C)(C)c1ssc(=S)c1-2	11.8%

Compound	hERG current change (%, negative = inhibition) at 10uM
CC(C)(C)NC(=O)C(c1ccc(O)cc1)N(C(=O)CCC(=O)Nc1nccs1)c1ccccc1F (stereo not shown)	23.9%
COc1ccc(-c2nnc(OCc3ccccc3)c3ccccc23)cc1	1.82%
COc1ccc2nc(NC(=O)CSc3nnc4n3C(C)(C)Cc3ccccc3-4)sc2c1	0.248%
COc1ccc(NN=Nc2nc3c([nH]2)c(=O)n(C)c(=O)n3C)cc1	-0.185%
CCOC(=O)c1nc(C)sc1-c1ccnn1S(=O)(=O)c1ccc(Cl)cc1Cl	-13.6%
CCO[C@@H]1OC(C(=O)NC2CC2)=C[C@H](c2c[nH]c3ccccc23)[C@H]1CCCO	-1.3%
O=C(N/N=C/c1ccc(OC2CSC2)cc1)c1ccc(CN2CCOCC2)cc1	-4.19%
COc1ccc(OC)c(/C=C/C(=O)Oc2ccc(C(C)=O)cc2)c1	13.8%
CC(C)/C=N/NC(=O)c1cc(Br)ccc1O	-12.9%
NC(=O)CC(NC(=O)Cc1ccc(Cl)cc1)c1ccc(NCc2ccccc2)c([N+](=O)[O-])c1 (stereo not shown)	1.16%
O=C(COC(=O)c1ccc(S(=O)(=O)N2CCCCCC2)cc1)NCc1ccc(Cl)cc1	-2.25%
O=[N+]([O-])c1cc([N+](=O)[O-])c(N2CCCCCC2)cc1NCCO	-13.4%
Cc1ccc(/C=C/S(=O)(=O)NCC(=O)OCC(=O)NCc2ccccc2)cc1	5.21%
CN1CCN(C(=O)c2cnn(-c3ccccc3)c2NC(=O)c2ccccc2Cl)CC1	7.13%
COC(=O)C1=CNC=C(C(=O)OC)C1c1cccc2ccccc12	-18.2%
O=C1c2ccccc2C(=O)N1C/C=C/c1ccccc1	13.2%
Cc1cccc(C(=O)Nc2ccc(CC(=O)O)cc2)c1	1.61%
COC(=O)c1ccc(NC(=O)c2ccc3nc(C)sc3c2)cc1	15.8%
CSC(=NC#N)N1CCN(C(=NC#N)SC)CC1	-1.88%
COc1ccc(NC(=S)Nc2cc(C(F)(F)F)ccc2F)cc1	-13.7%
O=C(Cc1ccc(F)cc1)NCCc1ccccc1	-1.11%
COc1ccc2c(c1)CC/C(=C/c1ccco1)C2=O	10.7%
